Several values for one entry are separate records, joined by “and”; a condition that tells them apart may be missing. Equal entries are not always repeated.
Tests used:
[1] = molecular target: monkey DLL3 on CHO-K1-cyno DLL3 cells (cynomolgus monkey); assay: FACS, CHO-K1-cyno DLL3 cells, 0.00128 nM antibody
[2] = molecular target: mouse DLL3 on CHO K1-mDLL3 cells (mouse) (UniProt O88516); assay: FACS, CHO-K1-mDLL3 cells, 0.8 nM antibody
[3] = molecular target: human DLL3 on CHO-K1 hDLL3 cells (human) (UniProt Q9NYJ7); assay: FACS, CHO-K1 hDLL3 #7
[4] = molecular target: human DLL3 protein expressed on CHO-K1 recombinant cells (human DLL3 extracellular segment fused to EpCAM transmembrane and intracellular regions) (human) (UniProt Q9NYJ7); assay: FACS, CHO-K1 hDLL3 cells, 20 nM antibody
[5] = molecular target: mouse DLL3 on CHO K1-mDLL3 cells (mouse) (UniProt O88516); assay: FACS, CHO-K1-mDLL3 cells, 0.00128 nM antibody
[6] = molecular target: DLL3 endogenously expressed on NCI-H82 cells (UniProt Q9NYJ7); assay: FACS on NCI-H82 cells; antibody 0.16 nM
[7] = molecular target: monkey DLL3 on CHO-K1-cyno DLL3 cells (cynomolgus monkey); assay: FACS, CHO-K1-cyno DLL3 cells, 100 nM antibody
[8] = molecular target: human DLL4 protein (Acro, Cat. No. DL4-H5227) (human) (UniProt Q9NR61); assay: ELISA, coated hDLL4; maximum over 0.1, 1, 10, 100 nM antibody
[9] = molecular target: human DLL3 on CHO-K1 hDLL3 cells (human) (UniProt Q9NYJ7); assay: FACS, CHO-K1 hDLL3 #5
[10] = molecular target: monkey DLL3 on CHO K1-cyno DLL3 cells (cynomolgus monkey); assay: FACS, CHO K1-cyno DLL3 #2
monkey DLL3 on CHO K1-cyno DLL3 cells (cynomolgus monkey), sequence (chain, as listed by the source limits assumed): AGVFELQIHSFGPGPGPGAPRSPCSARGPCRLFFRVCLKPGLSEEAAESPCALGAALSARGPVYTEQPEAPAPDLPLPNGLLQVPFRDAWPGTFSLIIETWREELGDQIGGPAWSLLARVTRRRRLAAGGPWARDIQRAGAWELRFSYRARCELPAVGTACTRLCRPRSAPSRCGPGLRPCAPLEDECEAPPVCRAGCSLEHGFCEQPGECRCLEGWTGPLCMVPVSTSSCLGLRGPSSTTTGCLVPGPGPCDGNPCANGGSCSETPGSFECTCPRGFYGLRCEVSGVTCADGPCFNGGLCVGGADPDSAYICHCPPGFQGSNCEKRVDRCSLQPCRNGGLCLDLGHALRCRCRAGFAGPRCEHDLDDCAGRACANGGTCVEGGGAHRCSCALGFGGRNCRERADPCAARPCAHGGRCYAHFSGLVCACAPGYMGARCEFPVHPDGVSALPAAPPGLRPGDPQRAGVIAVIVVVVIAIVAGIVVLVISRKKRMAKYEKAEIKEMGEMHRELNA

[11] = molecular target: DLL3 endogenously expressed on NCI-H82 cells (UniProt Q9NYJ7); assay: FACS on NCI-H82 cells; antibody 20 nM
[12] = molecular target: mouse DLL3 on CHO K1-mDLL3 cells (mouse) (UniProt O88516); assay: FACS, CHO-K1-mDLL3 cells, 20 nM antibody
[13] = molecular target: mouse DLL3 on CHO K1-mDLL3 cells (mouse) (UniProt O88516); assay: FACS, CHO-K1-mDLL3 cells, 0.032 nM antibody
[14] = molecular target: monkey DLL3 on CHO-K1-cyno DLL3 cells (cynomolgus monkey); assay: FACS, CHO-K1-cyno DLL3 cells, 0.16 nM antibody
[15] = molecular target: monkey DLL3 on CHO-K1-cyno DLL3 cells (cynomolgus monkey); assay: FACS, CHO-K1-cyno DLL3 cells, 0.8 nM antibody
[16] = molecular target: monkey DLL3 on CHO-K1-cyno DLL3 cells (cynomolgus monkey); assay: FACS, CHO-K1-cyno DLL3 cells, 0.0064 nM antibody
[17] = molecular target: DLL3 endogenously expressed on NCI-H82 cells (UniProt Q9NYJ7); assay: FACS on NCI-H82 cells; antibody 4 nM
[18] = molecular target: human DLL3 protein expressed on CHO-K1 recombinant cells (human DLL3 extracellular segment fused to EpCAM transmembrane and intracellular regions) (human) (UniProt Q9NYJ7); assay: FACS, CHO-K1 hDLL3 cells, 0.8 nM antibody
[19] = molecular target: human DLL3 protein expressed on CHO-K1 recombinant cells (human DLL3 extracellular segment fused to EpCAM transmembrane and intracellular regions) (human) (UniProt Q9NYJ7); assay: FACS, CHO-K1 hDLL3 cells, 0.00128 nM antibody
[20] = molecular target: mouse DLL3 on CHO K1-mDLL3 cells (mouse) (UniProt O88516); assay: FACS, CHO-K1-mDLL3 cells, 4 nM antibody
[21] = molecular target: DLL3 endogenously expressed on NCI-H82 cells (UniProt Q9NYJ7); assay: FACS on NCI-H82 cells; antibody 0.0064 nM
[22] = molecular target: human DLL3 protein expressed on CHO-K1 recombinant cells (human DLL3 extracellular segment fused to EpCAM transmembrane and intracellular regions) (human) (UniProt Q9NYJ7); assay: FACS, CHO-K1 hDLL3 cells, 100 nM antibody
[23] = molecular target: human DLL3 protein expressed on CHO-K1 recombinant cells (human DLL3 extracellular segment fused to EpCAM transmembrane and intracellular regions) (human) (UniProt Q9NYJ7); assay: FACS, CHO-K1 hDLL3 cells, 4 nM antibody
[24] = molecular target: mouse DLL3 on CHO K1-mDLL3 cells (mouse) (UniProt O88516); assay: FACS, CHO-K1-mDLL3 cells, 0.16 nM antibody
[25] = molecular target: human delta-like ligand 3 (DLL3) on SHP77 cells (human) (UniProt Q9NYJ7); assay: FACS on SHP77 cells
[26] = molecular target: DLL3 endogenously expressed on NCI-H82 cells (UniProt Q9NYJ7); assay: FACS on NCI-H82 cells; antibody 100 nM
[27] = molecular target: DLL3 endogenously expressed on NCI-H82 cells (UniProt Q9NYJ7); assay: FACS on NCI-H82 cells; antibody 0.8 nM
[28] = molecular target: monkey DLL3 on CHO K1-cyno DLL3 cells (cynomolgus monkey); assay: FACS, CHO K1-cyno DLL3 #1
[29] = molecular target: monkey DLL3 on CHO-K1-cyno DLL3 cells (cynomolgus monkey); assay: FACS, CHO-K1-cyno DLL3 cells, 4 nM antibody
[30] = molecular target: monkey DLL3 on CHO-K1-cyno DLL3 cells (cynomolgus monkey); assay: FACS, CHO-K1-cyno DLL3 cells, 20 nM antibody
[31] = molecular target: mouse DLL3 on CHO K1-mDLL3 cells (mouse) (UniProt O88516); assay: FACS, CHO K1-mDLL3 #4
[32] = molecular target: monkey DLL3 on CHO-K1-cyno DLL3 cells (cynomolgus monkey); assay: FACS, CHO-K1-cyno DLL3 cells, 0.032 nM antibody
[33] = molecular target: human DLL3 protein expressed on CHO-K1 recombinant cells (human DLL3 extracellular segment fused to EpCAM transmembrane and intracellular regions) (human) (UniProt Q9NYJ7); assay: FACS, CHO-K1 hDLL3 cells, 0.16 nM antibody
[34] = molecular target: mouse DLL3 on CHO K1-mDLL3 cells (mouse) (UniProt O88516); assay: FACS, CHO-K1-mDLL3 cells, 0.0064 nM antibody
[35] = molecular target: human DLL3 protein expressed on CHO-K1 recombinant cells (human DLL3 extracellular segment fused to EpCAM transmembrane and intracellular regions) (human) (UniProt Q9NYJ7); assay: FACS, CHO-K1 hDLL3 cells, 0.032 nM antibody
[36] = molecular target: DLL3 endogenously expressed on NCI-H82 cells (UniProt Q9NYJ7); assay: FACS on NCI-H82 cells; antibody 0.00128 nM
[37] = molecular target: human DLL1 protein (Acro, Cat. No. DL1-H52H8) (human) (UniProt O00548); assay: ELISA, coated hDLL1; maximum over 0.1, 1, 10, 100 nM antibody
[38] = molecular target: DLL3 endogenously expressed on NCI-H82 cells (UniProt Q9NYJ7); assay: FACS on NCI-H82 cells; antibody 0.032 nM
[39] = molecular target: mouse DLL3 on CHO K1-mDLL3 cells (mouse) (UniProt O88516); assay: FACS, CHO K1-mDLL3 #6
[40] = molecular target: human DLL3 protein expressed on CHO-K1 recombinant cells (human DLL3 extracellular segment fused to EpCAM transmembrane and intracellular regions) (human) (UniProt Q9NYJ7); assay: FACS, CHO-K1 hDLL3 cells, 0.0064 nM antibody
[41] = molecular target: monkey DLL3 on CHO K1-cyno DLL3 cells (cynomolgus monkey); assay: FACS, CHO K1-cyno DLL3 #3
[42] = molecular target: human DLL3 on CHO-K1 hDLL3 cells (human) (UniProt Q9NYJ7); assay: FACS, CHO-K1 hDLL3 #11
[43] = molecular target: mouse DLL3 on CHO K1-mDLL3 cells (mouse) (UniProt O88516); assay: FACS, CHO-K1-mDLL3 cells, 100 nM antibody
[44] = molecular target: human DLL4 protein (human) (UniProt Q9NR61); assay: ELISA, maximum over 0.1-100 nM
[45] = molecular target: human DLL1 protein (human) (UniProt O00548); assay: ELISA, maximum over 0.1-100 nM

monkey DLL3 on CHO-K1-cyno DLL3 cells (cynomolgus monkey), sequence (chain, as listed by the source limits assumed): as above

B1: 2G1 scFv-hFc (Fc fusion)
scFv: QLQLQESGPGLVKPSETLSLTCTVSGGSISSSSYYWGWIRQPPGKGLEWIGSIYYSGNIYHNPSLKSRVSISVDTSKNQFSLRLSSVTAADTAVYYCAREIIVGATHFDYWGQGTLVTVSSGGGGSGGGGSGGGGSGGGGSAIQMTQSPSSLSASVGDRVTITCRASQGIRNDLGWYQQKPGKAPELLIYAASSLQSGVPSRFSGSGSGTDFTLTISSLQPEDFATYYCLQDYNYPLTFGPGTKVDIK[human IgG1 Fc with changes cut from this listing]
- MFI [1]: 166 MFI
- MFI [2]: 497 MFI
- Mean fluorescence intensity of cells [3]: 2380 MFI
- MFI [4]: 15600 MFI
- MFI [5]: 92 MFI
- MFI [6]: 286
- MFI [7]: 10900 MFI
- Emax of OD450 nm binding value [8]: 0.06 OD450 nm
- Mean fluorescence intensity of cells [9]: 2000 MFI
- Mean fluorescence intensity of cells [10]: 1560 MFI
- MFI [11]: 500
- MFI [12]: 698 MFI
- MFI [13]: 138 MFI
- MFI [14]: 2060 MFI
- MFI [15]: 6090 MFI
- MFI [16]: 267 MFI
- MFI [17]: 472
- MFI [18]: 8510 MFI
- MFI [19]: 159 MFI
- MFI [20]: 672 MFI
- MFI [21]: 114
- MFI [22]: 16600 MFI
- MFI [23]: 14100 MFI
- MFI [24]: 263 MFI
- MFI at 0.00128 nM [25]: 153 MFI
- MFI at 0.0064 nM [25]: 188 MFI
- MFI at 0.032 nM [25]: 286 MFI
- MFI at 0.16 nM [25]: 618 MFI
- MFI at 0.8 nM [25]: 1230 MFI
- MFI at 4 nM [25]: 1490 MFI
- MFI at 20 nM [25]: 1620 MFI
- MFI at 100 nM [25]: 1890 MFI
- MFI [26]: 588
- MFI [27]: 422
- Mean fluorescence intensity of cells [28]: 734 MFI
- MFI [29]: 8770 MFI
- MFI [30]: 9600 MFI
- Mean fluorescence intensity of cells [31]: 249 MFI
- MFI [32]: 642 MFI
- MFI [33]: 2510 MFI
- MFI [34]: 100 MFI
- MFI [35]: 727 MFI
- MFI [36]: 100
- Emax of OD450 nm binding value [37]: 0.08 OD450 nm
- MFI [38]: 165
- Mean fluorescence intensity of cells [39]: 349 MFI
- MFI [40]: 283 MFI
- Mean fluorescence intensity of cells [41]: 1580 MFI
- Mean fluorescence intensity of cells [42]: 1630 MFI
- MFI [43]: 673 MFI

B2: AMG757-4 scFv-hFc (Fc fusion)
scFv: QVQLQESGPGLVKPSETLSLTCTVSGGSISSYYWSWIRQPPGKCLEWIGYVYYSGTTNYNPSLKSRVTISVDTSKNQFSLKLSSVTAADTAVYYCASIAVTGFYFDYWGQGTLVTVSSGGGGSGGGGSGGGGSEIVLTQSPGTLSLSPGERVTLSCRASQRVNNNYLAWYQQRPGQAPRLLIYGASSRATGIPDRFSGSGSGTDFTLTISRLEPEDFAVYYCQQYDRSPLTFGCGTKLEIK[human IgG1 Fc with C220S (EU numbers) cut from this listing]
- MFI [1]: 129 MFI
- MFI [2]: 1170 MFI
- MFI [4]: 8940 MFI and 13100 MFI
- MFI [5]: 120 MFI
- MFI [6]: 621 and 527
- MFI [7]: 8660 MFI
- Emax of OD450 nm binding value [8]: 0.6 OD450 nm
- MFI [11]: 944 and 1040
- MFI [12]: 1800 MFI
- MFI [13]: 212 MFI
- MFI [14]: 1560 MFI
- MFI [15]: 5170 MFI
- MFI [16]: 207 MFI
- MFI [17]: 836 and 942
- MFI [18]: 8360 MFI and 4960 MFI
- MFI [19]: 217 MFI and 130 MFI
- MFI [20]: 1580 MFI
- MFI [21]: 160 and 139
- MFI [22]: 8790 MFI and 14000 MFI
- MFI [23]: 8930 MFI and 12400 MFI
- MFI [24]: 532 MFI
- MFI at 0.00128 nM [25]: 100 MFI and 121 MFI
- MFI at 0.0064 nM [25]: 117 MFI and 160 MFI
- MFI at 0.032 nM [25]: 175 MFI and 299 MFI
- MFI at 0.16 nM [25]: 390 MFI and 668 MFI
- MFI at 0.8 nM [25]: 773 MFI and 1030 MFI
- MFI at 4 nM [25]: 911 MFI and 1090 MFI
- MFI at 20 nM [25]: 1000 MFI and 1180 MFI
- MFI at 100 nM [25]: 1150 MFI and 1360 MFI
- MFI [26]: 1100 and 1230
- MFI [27]: 789 and 883
- MFI [29]: 7310 MFI
- MFI [30]: 8100 MFI
- MFI [32]: 469 MFI
- MFI [34]: 138 MFI
- MFI [36]: 120 and 123
- Emax of OD450 nm binding value [44]: 0.04 OD450 and 0.05 OD450
- Emax of OD450 nm binding value [45]: 0.04 OD450 and 0.05 OD450 and 0.06 OD450
- Emax of OD450 nm binding value [37]: 0.37 OD450 nm
- MFI [38]: 290 and 218
- MFI [40]: 420 MFI and 181 MFI
- MFI [43]: 1890 MFI

Source: patent EP4786492A1
